Experimental data: the supplement of paper PMC4967469
A lower IC50 marks a more sensitive line; a limit (>, <) means that the fit lies beyond the doses tested. The AUC spans the tested range (256-fold, ending at the top dose) of the same fit; values near 1 show little effect. For part of these data: An inferred top dose is not printed in the source and was worked back from the curve model.

Key:
Experiment in all cases: Viability of human cancer cell lines after 72 h of drug (GDSC screen)
AG-014699 = compound: CNCc1ccc(-c2[nH]c3cc(F)cc4c3c2CCNC4=O)cc1 [AG-014699]; conditions: top dose 5 µM; top dose inferred
Description: (§1)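 Human cancer cell lines in 384-well plates, medium with 10% serum, drug for 72 h over a 256-fold dose range (nine 2-fold or five 4-fold steps up to the top dose). Adherent lines were fixed and stained with the nucleic acid dye Syto60, suspension lines read with resazurin; signal relative to control wells, capped at 0 and 100%. One two-parameter sigmoid per drug and line, fitted in a mixed model over all curves with the slope shared within a line.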

QL-XI-92 = compound: C=CC(=O)Nc1cc(NC(=O)c2ccc(C)c(NC(=O)c3ccno3)c2)cc(C(F)(F)F)c1 [QL-XI-92]; conditions: top dose 10.24 µM; top dose inferred
Description: as §1

NU-7441 = compound: O=c1cc(N2CCOCC2)oc2c(-c3cccc4c3sc3ccccc34)cccc12 [NU-7441]; conditions: top dose 2 µM; top dose inferred
Description: as §1

Vinorelbine = compound: CCC1=C[C@@H]2CN(C1)Cc1c([nH]c3ccccc13)[C@@](C(=O)OC)(c1cc3c(cc1OC)N(C)[C@H]1[C@@](O)(C(=O)OC)[C@H](OC(C)=O)[C@]4(CC)C=CCN5CC[C@]31[C@@H]54)C2 [Vinorelbine]; conditions: top dose 0.064 µM; top dose inferred
Description: as §1

WHI-P97 = compound: COc1cc2ncnc(Nc3cc(Br)c(O)c(Br)c3)c2cc1OC [WHI-P97]; conditions: top dose 10.24 µM; top dose inferred
Description: as §1

S-Trityl-L-cysteine = compound: N[C@@H](CSC(c1ccccc1)(c1ccccc1)c1ccccc1)C(=O)O [S-Trityl-L-cysteine]; conditions: top dose 5.12 µM; top dose inferred
Description: as §1

XL-184 = compound: COc1cc2nccc(Oc3ccc(NC(=O)C4(C(=O)Nc5ccc(F)cc5)CC4)cc3)c2cc1OC [XL-184]; conditions: top dose 5.12 µM; top dose inferred
Description: as §1

Phenformin = compound: N=C(N)NC(=N)NCCc1ccccc1 [Phenformin]; conditions: top dose 4000 µM; top dose inferred
Description: as §1

Erlotinib = compound: C#Cc1cccc(Nc2ncnc3cc(OCCOC)c(OCCOC)cc23)c1 [Erlotinib]; conditions: top dose 2 µM
Description: as §1

Gefitinib = compound: COc1cc2ncnc(Nc3ccc(F)c(Cl)c3)c2cc1OCCCN1CCOCC1 [Gefitinib]; conditions: top dose 0.5 µM
Description: as §1

EHT 1864 = compound: O=c1cc(CN2CCOCC2)occ1OCCCCCSc1ccnc2cc(C(F)(F)F)ccc12 [EHT 1864]; conditions: top dose 10 µM; top dose inferred
Description: as §1

Cell Line	AUC (AG-014699)	IC50 (AG-014699) [µM]	AUC (QL-XI-92)	IC50 (QL-XI-92) [µM]	AUC (NU-7441)	IC50 (NU-7441) [µM]	AUC (Vinorelbine)	IC50 (Vinorelbine) [µM]	AUC (WHI-P97)	IC50 (WHI-P97) [µM]	AUC (S-Trityl-L-cysteine)	IC50 (S-Trityl-L-cysteine) [µM]	AUC (XL-184)	IC50 (XL-184) [µM]	AUC (Phenformin)	IC50 (Phenformin) [µM]	AUC (Erlotinib)	IC50 (Erlotinib) [µM]	AUC (Gefitinib)	IC50 (Gefitinib) [µM]	AUC (EHT 1864)	IC50 (EHT 1864) [µM]
L-1236 (Hodgkin lymphoma, suspension)	0.992	> 5	0.987	> 10.2	0.985	> 2	0.978	> 0.064	0.99	> 10.2	0.96	> 5.12	0.979	> 5.12	0.72	931	0.99	> 2	0.978	> 0.5	0.992	> 10
LAMA-84 (chronic myeloid leukaemia, suspension)	0.986	> 5	0.614	1.32	0.897	> 2	0.822	0.0381	0.969	> 10.2	0.824	3.1	0.531	0.388	0.622	544	0.962	> 2	0.959	> 0.5	0.91	> 10
LB771-HNC (head and neck, adherent)	0.982	> 5	0.975	> 10.2	0.975	> 2	0.594	0.00771	0.968	> 10.2	0.769	2.43	0.917	> 5.12	0.734	1400	0.897	> 2	0.891	> 0.5	0.877	> 10
LB831-BLC (bladder, adherent)	0.986	> 5	0.949	> 10.2	0.982	> 2	0.773	0.0254	0.98	> 10.2	0.918	> 5.12	0.977	> 5.12	0.959	> 4000	0.962	> 2	0.969	> 0.5	0.966	> 10
LB1047-RCC (kidney, adherent)	0.956	> 5	0.911	> 10.2	0.912	> 2	0.887	> 0.064	0.948	> 10.2	0.841	4.22	0.827	3.69	0.753	1490	0.889	> 2	0.86	> 0.5	0.976	> 10
LS-513 (large intestine, adherent)	0.949	> 5	0.951	> 10.2	0.975	> 2	0.945	> 0.064	0.98	> 10.2	0.852	4.19	0.914	> 5.12	0.567	385	0.777	0.838	0.954	> 0.5	0.981	> 10
